Data taken from PubChem BioAssay AID445 (National Center for Advancing Translational Sciences (NCATS), 2006).
Screen size: about 110,000 compounds; about 40 (0.04%) were called active. The shares of active, inactive and inconclusive entries below differ from those in the screen. Calls follow the shape of the dose curve; as a rule, active = well fitted curve in the direction sought with a large enough effect in the signal ratio (not every such curve was filed as active); inconclusive = small, poorly fitted or top-dose-only effect, or a change in a side signal; inactive = flat fitted curve, though single readings scatter; the % refers to the signal ratio. Potencies beside an inconclusive call are fits to weak or partial responses and may not hold up.

experiment: IkB Signaling; settings: ABC-DLBCL IkBa-CBG/CBR dual luciferase ratio (green luciferase fused to IkBa over red control in OCI-Ly3 lymphoma cells), 4 h; IkBa stabilization activation: at 57.1 µM (top of the series), scaled: untreated 0%, proteasome inhibitor 100% unless noted;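 as to IkBa stabilization activation: 0% = basal untreated cells and 100% = reference inhibitor full response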
Summary of the method: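 In this assay, an IκBα–CBG68 fusion accumulates when IKK-driven degradation is blocked; native CBR normalizes for cell number. OCI-Ly3 cells were treated 4 h with compound and doxycycline, then green and red light read after Chroma-Glo addition.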
Potency is read from the fitted curve at half-maximal effect.

SMILES	IkBa stabilization activation	Potency
COc1ccccc1C(=O)Oc1ccc(C(c2c(C)[nH][nH]c2=O)c2c(C)[nH][nH]c2=O)cc1	inconclusive: 6.25% [signal inhibitor]	
O=C(CCCn1c(=O)c2cccn2c2ccccc21)NCCc1ccc(Cl)cc1	inconclusive: 0.352% [signal inhibitor]	
Cc1cnc(NC(=O)CSc2nnc(-c3ccc(Cl)cc3Cl)n2N)s1	inconclusive: 2.96% [signal inhibitor]	
CCCCNC(=O)c1cc2c(-c3ccc(Cl)cc3)nn(C)c2s1	inactive: 0.858%	
CSc1nn(Cc2ccc(C)cc2)c(N)c1S(=O)(=O)c1ccccc1	inconclusive: 13.7% [signal inhibitor]	
COc1ccc(OC)c(NC(=O)Cn2c(=O)cc(-c3ccccc3)c3c(C)nn(C)c32)c1	inconclusive: 6.91% [signal inhibitor]	
O=C(CCCCCn1c(=O)[nH]c2ccccc2c1=O)N1CCN(Cc2ccc3c(c2)OCO3)CC1	inconclusive: 2.66% [signal inhibitor]	
Fc1cc(F)c2nc(N3CCCCC3)sc2c1	inactive: -3.55%	
CCn1cc(C(=O)Nc2cccc(NC(C)=O)c2)c2cc(OC)c(OC)cc2c1=O	inactive: -0.369%	
Cc1cccc(N2CCN(C(=O)CS(=O)(=O)Cc3nc(-c4ccccc4C)oc3C)CC2C)c1 (centres undefined)	inconclusive: 4.45% [signal inhibitor]	
CCOc1ccc(N(Cc2ccccc2)C(=O)c2nc(S(C)(=O)=O)ncc2Cl)cc1	inconclusive: -3.89% [signal inhibitor]	
CCc1ccc(S(=O)(=O)c2nnn3c2nc(Nc2ccc(NC(C)=O)cc2)c2sccc23)cc1	inactive: -1.85%	
CC(=O)c1c(C)oc2c1cc(NS(=O)(=O)c1ccc(Cl)c(C)c1)c1ccccc12	inconclusive: 19.5% [signal inhibitor]	
O=S(=O)(c1cccs1)N1CCN(Cc2nc3ccccc3s2)CC1	inconclusive: 6.44% [signal inhibitor]	
Cc1c(Cl)cccc1NC(=O)c1cc(-c2ccc(O)cc2)on1		inconclusive: 15.8 µM [signal inhibitor, partial curve]
O=C(Nc1ccc(Cl)cc1)C(NS(=O)(=O)c1cccs1)c1ccccc1 (centres undefined)	inconclusive: 8.14% [signal inhibitor]	
Cc1nc(-c2ccc(C)c(N3CCN(C(=O)Nc4cccc(Cl)c4C)CC3)c2)no1	inconclusive: 5.46% [signal inhibitor]	
Cc1ccc(-n2c(Cc3ccccc3)nnc2SCc2nc(-c3cccs3)no2)cc1C	inconclusive: 1.44% [signal inhibitor]	
COC(=O)CSCc1nc2ccccc2[nH]c1=O	inactive: -1.13%	
COc1ccc(CNC(=O)c2ccc3nc(-c4ccc(F)cc4)c(-c4ccc(F)cc4)nc3c2)cc1	inconclusive: 0.624% [signal inhibitor]	
Cc1nc(N2CCC(C)CC2)c2oc3ccccc3c2n1	inactive: 0.879%	
Cc1ccc(NC(=O)c2ccccc2Br)c(C(=O)c2ccccc2)c1	inconclusive: 3.3% [signal inhibitor]	
CC1CCN(c2nc3ccc(C(=O)NCc4ccccc4)cc3s2)CC1	inconclusive: 17.1% [signal inhibitor]	

SMILES	IkBa stabilization activation	Potency
COc1ccc(-c2cc(=O)c3c(O)cc(O)cc3o2)cc1	inconclusive: -5.96% [signal inhibitor] [at 25.6 µM, scaled: untreated 0%, proteasome inhibitor 100%]	
COc1ccc(CC(=O)Nc2nc3c(s2)CC(C)CC3)cc1 (centres undefined)	inconclusive: 1.77% [signal inhibitor]	
CCN(C(=O)COc1cc(=O)n(CC)c2ccccc12)c1cc(Cl)ccc1OC	inconclusive: 6.49% [signal inhibitor]	
C[C@@H](C(=O)O)c1ccc(N2Cc3ccccc3C2=O)cc1		inconclusive: 15.8 µM [signal inhibitor, partial curve]
Cc1ccc(NC(=O)C2CCCN(S(=O)(=O)c3ccc4[nH]c(=O)ccc4c3)C2)cc1Cl (centres undefined)	inactive: 0.677%	
COc1ccc2c(c1)c1c(c(=O)n(CCc3ccccc3)c(=O)n1Cc1cccc(Cl)c1)n2C	inconclusive: -0.548% [signal inhibitor]	
Cc1ccccc1OCCCC(=O)Nc1nccs1	inconclusive: 3.39% [signal inhibitor]	
COc1cc(NC(=O)c2ccc(C)c(Cl)c2)ccc1NC(=O)c1cc2ccccc2o1	inactive: 0.919%	
NC(=O)c1ccc(-c2ncc(-c3ccccc3)o2)cc1	inactive: 7.1%	
CCOc1ccccc1Nc1ncnc2c1cnn2-c1ccc(C)cc1	inconclusive: 5.78% [signal inhibitor]	
CC1CN(C(=O)N2CCC(C(=O)NCCCc3ccccc3)CC2)c2cc(Cl)ccc2O1 (centres undefined)	inconclusive: -0.574% [signal inhibitor]	
Cc1[nH]nc2c1C(c1ccc3c(c1)OCO3)C(C#N)=C(N)O2 (centres undefined)	inactive: 1.07%	
CCOc1ccccc1Nc1nc2ccccc2c2nncn12	inactive: -0.304%	
CCOc1ccc(CNC(=O)c2ccc3oc(=O)n(Cc4ccccc4)c3c2)cc1	inconclusive: 0.829% [signal inhibitor]	
CS(=O)(=O)N1CCN(c2nc(-c3ccccc3)cs2)CC1	inactive: -2.28%	
CC(C)c1c(C#N)c(N)nc(SCC(=O)c2cc3ccccc3oc2=O)c1C#N	inconclusive: 5.79% [signal inhibitor]	
COc1ccc(CCNC(=O)CCc2c(C)nc3c4c(C)cc(C)nc4nn3c2C)cc1OC	inconclusive: -0.94% [signal inhibitor]	
CC1(C)Cc2c(sc3c2c(=N)n(Cc2ccco2)c(=O)n3Cc2ccccc2)CO1	inconclusive: -3.05% [signal inhibitor]	
Cc1ccc(Cn2nnc3c(=O)[nH]c(C4CCN(C(=O)Cc5ccccc5F)CC4)nc32)cc1	inconclusive: 0.499% [signal inhibitor]	
CC(=O)c1c(C)oc2ccc(N(C(=O)Oc3ccccc3)S(=O)(=O)c3ccc(Cl)cc3)cc12	inconclusive: 1.39% [signal inhibitor]	
CCc1cccc(NS(=O)(=O)c2c(C)[nH]c(=O)[nH]c2=O)c1		inconclusive: 25.1 µM [signal inhibitor, partial curve]
O=C(Nc1ccc(Nc2ccccc2)cc1)c1ccc(Br)o1	inconclusive: -6.65% [signal inhibitor]	
CC1CCN(S(=O)(=O)c2ccc3c(c2)CCN3C(=O)Nc2ccccc2Br)CC1	inactive: 0.0696%	

SMILES	IkBa stabilization activation	Potency
COc1ccc2c(c1OC)C(=O)N1c3ccccc3COC21 (centres undefined)	inactive: 1.56%	
COc1ccc2c(c1)cc(CNc1ccc(OC)c(OC)c1)c(=O)n2CC(=O)Nc1ccccc1C	inconclusive: 1.09% [signal inhibitor]	
CCCNc1nc2c(c(=O)n(C)c(=O)n2C)n1CCc1ccccc1	inconclusive: 0.826% [signal inhibitor]	
Cc1nc2ccccc2c(=O)n1/N=C/c1cn(-c2ccccc2)nc1-c1cccs1	inconclusive: 0.724% [signal inhibitor]	
Cc1ccc(S(=O)(=O)Nc2cccc(-c3ccc(N4CCC(C)CC4)nn3)c2)s1	inconclusive: 4.05% [signal inhibitor]	
Cc1ccc(NCc2cccn2-c2nnc(N3CCC(C(=O)NCCc4ccc(Cl)cc4)CC3)s2)cc1	inconclusive: 2.45% [signal inhibitor]	
Cc1nc(SCC(=O)Nc2ccc(C)c(F)c2)c2oc3ccccc3c2n1	inactive: -1.5%	
COc1ccc(-n2c(C)nc3c(cnn3-c3ccc(F)cc3)c2=O)cc1	inactive: -2.95%	
CC(C)(C)NC(=O)COC(=O)c1snc(C(=O)NC2CCCCC2)c1N		inconclusive: 20 µM [signal inhibitor, partial curve]
CCc1nn2c(=O)cc(COC(=O)c3cccc(NC(=O)CCc4ccccc4)c3)nc2s1	inconclusive: 16% [signal inhibitor]	
COc1ccccc1CNC(=O)C1CCN(c2nc3ccc(Cl)cc3[nH]2)CC1	inconclusive: 2.3% [signal inhibitor]	
CC(C)(C)CNCCO	inactive: 0.549% [at 11.4 µM, scaled: untreated 0%, proteasome inhibitor 100%]	
O=C(NCc1cccnc1)[C@@H]1[C@@H](C(=O)O)[C@H]2CC[C@@H]1O2	inactive: 1.68% [at 11.4 µM, scaled: untreated 0%, proteasome inhibitor 100%]	
O=C(Nc1ncc(Br)s1)C(Cc1ccccc1)n1cccc1 (centres undefined)	inconclusive: -7.71% [signal inhibitor]	
CCCCc1ccc(-n2nc3cc(C)c(NC(=O)c4ccc(C#N)cc4F)cc3n2)cc1	inactive: -3.27%	
COc1cc2c(=O)n(CCC(=O)NCC3CCCO3)c(=O)n(CC(=O)Nc3ccccc3C)c2cc1OC (centres undefined)	inconclusive: 8.24% [signal inhibitor]	
CCCCOc1ccc(CNC(=O)c2cccc(NC(=O)N3CCSc4ncccc43)c2)cc1	inconclusive: 1.22% [signal inhibitor]	
COc1nc(C)nc(Cl)c1NC1=NCCN1	inactive	
COc1ccc(-n2ncc3c(NCCCOC(C)C)ncnc32)cc1	inconclusive: -0.636% [signal inhibitor]	
O=C(CCc1nc(CN2CCN(S(=O)(=O)c3ccc(Br)cc3)CC2)no1)N1CCCCC1	inconclusive: 2.77% [signal inhibitor]	
COc1cc2cc(CNc3ccccc3)c(=O)n(CC(=O)Nc3cccc(Cl)c3C)c2cc1OC	inconclusive: 0.926% [signal inhibitor]	
Cc1cccc(N2CCN(C(c3ccccc3)c3nnnn3CC3CCCO3)CC2)c1C (centres undefined)	inconclusive: 2.78% [signal inhibitor]	
Cc1ccccc1Cn1cc(S(=O)(=O)CC(=O)Nc2nccs2)c2ccccc21	inconclusive: 4.87% [signal inhibitor]	
